From a collection of fitness landscapes (doi:10.1016/j.celrep.2020.107928)
In all, about 81,000 sequences were measured (“one-hybrid fitness for binding NBS DNA”: median about -0.1, highest 2% from about 0.36 on). The list shows a part of the results.

B1: Caulobacter ParB omega fusion; a variant is named by its letters at X, in order, B8GW30 (parent)
chain: MESVVVGEPGMSEGRRGLGRGLSALLGEVDAAPAQAPGEQLGGSREAPIEILQRNPDQPRRTFREEDLEDLSNSIREKGVLQPILVRPSPDTAGEYQIVAGERAWRAAQRAGLKTVPIMVRELDDLAVLEIGIIENVQRADLNVLEEALSYKVLMEKFERTQENIAQTIGKSXSHVANXMRLLXLPDEVQSYLVSGELTAXHARAIAAAADPVALAKQIIEGGLSVRETEALARKAPNLSAGKSKGGRPPRVKDTDTQALESDLSSVLGLDVSIDHRGSTGTLTITYATLEQLDDLCNRLTRGI

Variants of: B1
Assay: one-hybrid fitness for binding NBS DNA (the Noc-binding site; scaled: cognate 1, non-cognate 0); higher = stronger binding
Settings: with NBS DNA site
In short: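 Caulobacter ParB libraries with four specificity codons randomised were screened by bacterial one-hybrid selection in the E. coli USO strain, using a HIS3 reporter whose site lies 19 bp from the promoter. Selection ran for 48 hours at 37°C on M9 lacking histidine, with 0.1 mM IPTG and 5 mM 3-AT. Plasmids were Illumina-sequenced before and after selection, three replicate libraries were pooled, and variants with under 10 reads were dropped. Fitness is the log change in each variant's read ratio to wild type, rescaled against the cognate and non-cognate sites.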

one-hybrid fitness for binding NBS DNA, 0.239:
THRR

one-hybrid fitness for binding NBS DNA, 0.516:
RCTS

one-hybrid fitness for binding NBS DNA, 0.597:
QQRY

one-hybrid fitness for binding NBS DNA, 0.46:
QLKY

one-hybrid fitness for binding NBS DNA, 0.202:
CRST

one-hybrid fitness for binding NBS DNA, 0.386:
QISR

one-hybrid fitness for binding NBS DNA, 0.315:
QSFT

one-hybrid fitness for binding NBS DNA, ≤ 0.2:
GAHP
FYRT
MPKF
PSYW
KQDC
FRLS
VSIP
PGNY
WCPL
SDYS
VCNC
YRPM
VAKY
LSNR
LVHY
MSGM
CSAW
CDNY
WCLR
TEQS
TMST
HMAI
CQQS
ICWR
GRKF
QWPT
GEGT
LGIG
LMGS
CRER
MVDQ
RGSV
QTFY
HSYM
FFLW
RMLC
NHMW
VCTA
FCFG
GGEG
ECGC
PQAD
QRME
LDAV
CPHC
INND
LKPC
PYWE
TGFL
HWMT
MMMK
KTLN
RDIN
VNTL
ATDE
DNWT
MCMC
PNWY
HNVV
YESM
QESW
TGRS
LFQR
NSHY
YMAS
SMIE
KKNG
FPPL
YLRL
AVVV
SYKM
TYRV
VCVM
YGAR
RGTC
IKLT
LSWD
RWHE
YPQS
HVPF
ASGI
MAHC
TTPR
RAPA
ELMV
GPAG
PRPA
DLAK
EECS
MHLS
MLLE
FRKS
PHFT
KTFY
HATT
YWPT
VYAA
RPWV
DYAR
SAAH
CSNE
PKTP
MNTR
TPAK
NKHW
RGAP
TRDH
TIKY
QELR
SSKD
RAVQ
RRAP
QLFC
TVHW
QVVL
ICPF
HDTS
TITG
NNRI
LSLE
WLHP
HSRR
CSRY
PSPR
SHLA
SSSS
LCIG
PVPL
RTQG
WFAK
QQCK
QMHC
NAAT
ISDR
ADTC
RAVV
GERV
PTLC
DKSG
LIKA
STWY
YLNM
AMFR
YVSP
LERN
RKKL
TWNT
MMTC
PTKI
WSCS
CKCS
TWCD
MLKR
KVGN
STVA
EMHC
HPGV
VWMW
ARPV
TYRM
PPCG
VQYR
LDHR
WIQR
ALYY
PTIC
FYRS
RAPS
PHRP
RPIS
MHQW
KFNE
YCPS
KLIS
GGTC
RQNL
PYYW
HPNG
TMRV
GMRQ
RIYQ
PPFT
DPRG
ERNT
HQPR
MRMR
LHRT
KMQT
PRSD
VVDT
VHRC
ATTH
VRIR
NRRL
DRGL
AHNR
TLTG
VANE
KWPS
ATYS
WARV
RYHV
YWSS
MSRR
FGVT
SNKG
SHCH
PTSK
IDNV
NQVL
RHTQ
NVAL
ATLH
PKET
QMSP
YTAP
SRNL
FTTT
SIQS
WMMT
GPVS
GYKD
LWIL
HTRT
DWTR
QEVN
DDQS
FMKM
NWKS
WFMS
PGVS
TSHM
QWVG
PPLF
DLDT
VNVW
EDYG
QMTM
VTEF
GLGY
LISY
APEY
QYLK
RSML
CVRL
PAII
RYHL
LSSN
DSQF
STAE
HLVR
HQCG
DFRS
TMHI
TCLW
SWLM
YFNC
NFAS
DPDR
LNNP
YYHM
VEGT
NSAC
TTVQ
MVGT
AGAC
VLSK
RAFI
QQPD
QNWE
SFRE
RGKL
PCQG
YPPI
HMQR
LSVC
CFNW
KVIA
QQNF
HFST
PNRT
HVSS
VWFG
SMEG
HVST
TRVS
ELTV
YSRK
YMIT
INNF
CPLP
VVKM
WNAS
TPVY

one-hybrid fitness for binding NBS DNA, 0.249:
QAYA

one-hybrid fitness for binding NBS DNA, 0.236:
RAWT

one-hybrid fitness for binding NBS DNA, 0.295:
QRFK

one-hybrid fitness for binding NBS DNA, 0.261:
AEKR
RVVT
